Patent US20230416345A1, “NEW TYPE II COLLAGEN BINDING PROTEINS” (Navigo Proteins GmbH, priority 2020, published 2023)

Tests used:
[1] = biological target: T1, recombinant human collagen type II (h Col II) (Homo sapiens, UniProt P02458); experiment: KD-determination by ELISA vs human collagen type II; type: binding; conditions: type II collagen; tetramers: of different species
T1 construct: purchased Chondrex CHX-20051
Description: (§1) High binding plates (Greiner, 781061) were immobilized with 2.5 μg/ml recombinant human collagen type II (h Col II, Chondrex, CHX-20051), rabbit collagen type II (rbCol II, prepared from rabbit eyes), porcine collagen type II (p Col II, prepared from porcine eyes), human collagen type I, (h Col I, Sigma, C5483-1MG), human collagen type V (h Col V, Abcam, ab7537), human collagen type III (h Col Ill, Abcam, ab7535) and 67B89 (domain of fibronectin, produced in E. coli) respectively over night at 4° C. ELISA-plates were washed 3 times with PBST (PBS+ 0.1% Tween) and blocked with 3% BSA/0.5% Tween/PBS 2 h at RT. After washing with PBST, dilution series of 1.1 μM to 7×10^−4 nM of dimers (CID 211999, CID 212000), dilution series of 100 nM to 7×10^−6 nM of tetramers (CID 212001 and CID 212704) and dilution series of 10 μM to 2 nM of dimer (CID 212705) were incubated on ELISA-plates 1 h at rt. Plates were washed with PBST and incubated with biotinylated anti-StrepTag-ab (Antikörper-online, ABIN1573895) with a dilution of 1:10.000 for 1 h at rt. The binding was visualized with a-rabbit-IgG-HRP (Sigma, A9169) with a dilution of 1:10.000 and as substrate TMB Plus von KEM EN TEC Diagnostic, Kat-Nr. 4395.

[2] = biological target: T2, hCol2 (human Type II collagen) (Homo sapiens, UniProt P02458); experiment: Binding analysis by SPR (Biacore 3000) vs human type II collagen; conditions: dimers or tetramers; Langmuir 1:1 model
T2 construct: purchased Chondrex
Description: Proteins with affinity tag were purified by affinity chromatography and size exclusion. After affinity chromatography purification using Strep-Tactin Superflow high capacity cartridges (IBA Lifesciences) a size exclusion chromatography (SEC) was performed using an Äkta system and a Superdex™ 200 HiLoad 16/600 column (Cytiva). Fused variants with Aflibercept were purified via MabSelect SuRe (Cytiva) affinity chromatography followed by a size exclusion chromatography (SEC) using an Äkta system and a Superdex™ 200 HiLoad 16/600 column (Cytiva). All chromatography processing steps were carried out on AKTA systems using matrices from Cytiva. Homogenous species of all purified ligands were obtained; no aggregation was detected. Following SOS-PAGE analysis positive fractions were pooled and their protein concentrations were measured. Further analysis included SOS-PAGE, SE-HPLC and RP-HPLC. Protein concentrations were determined by absorbance measurement at 280 nm using the molar absorbent coefficient. Reversed phase chromatography (RP-HPLC) was performed using a Dionex HPLC system and a PLRP-S (5 μm, 300 Å) column (Agilent). […] Binding of Collagen II was evaluated by SPR measurements using a Biacore 3000 system. […] Binding molecules were injected at different concentration and affinity was calculated by langmuir 1:1 binding model. […]

[3] = biological target: T3, human collagen type V (h Col V) (Homo sapiens, UniProt P05997+P20908); experiment: ELISA specificity vs human collagen type V; type: binding
T3 construct: purchased Abcam ab7537
Description: as §1

[4] = biological target: T4, 67B89 (domain of fibronectin) (Homo sapiens, UniProt P02751); experiment: ELISA specificity vs 67B89; type: binding
T4 construct: unrelated fibronectin domain EDB (67B89) could be observed; made in house; host or cells: E. coli
Description: as §1

[5] = biological target: T5, human collagen type I (h Col I) (Homo sapiens, UniProt P02452+P08123); experiment: ELISA specificity vs human collagen type I; type: binding
T5 construct: purchased Sigma C5483-1MG
Description: as §1

[6] = biological target: T6, human collagen type III (Homo sapiens, UniProt P02461); experiment: ELISA specificity vs human collagen type III; type: binding
T6 construct: purchased Abcam ab7535
T6 sequence (P02461 154-1221 limits assumed): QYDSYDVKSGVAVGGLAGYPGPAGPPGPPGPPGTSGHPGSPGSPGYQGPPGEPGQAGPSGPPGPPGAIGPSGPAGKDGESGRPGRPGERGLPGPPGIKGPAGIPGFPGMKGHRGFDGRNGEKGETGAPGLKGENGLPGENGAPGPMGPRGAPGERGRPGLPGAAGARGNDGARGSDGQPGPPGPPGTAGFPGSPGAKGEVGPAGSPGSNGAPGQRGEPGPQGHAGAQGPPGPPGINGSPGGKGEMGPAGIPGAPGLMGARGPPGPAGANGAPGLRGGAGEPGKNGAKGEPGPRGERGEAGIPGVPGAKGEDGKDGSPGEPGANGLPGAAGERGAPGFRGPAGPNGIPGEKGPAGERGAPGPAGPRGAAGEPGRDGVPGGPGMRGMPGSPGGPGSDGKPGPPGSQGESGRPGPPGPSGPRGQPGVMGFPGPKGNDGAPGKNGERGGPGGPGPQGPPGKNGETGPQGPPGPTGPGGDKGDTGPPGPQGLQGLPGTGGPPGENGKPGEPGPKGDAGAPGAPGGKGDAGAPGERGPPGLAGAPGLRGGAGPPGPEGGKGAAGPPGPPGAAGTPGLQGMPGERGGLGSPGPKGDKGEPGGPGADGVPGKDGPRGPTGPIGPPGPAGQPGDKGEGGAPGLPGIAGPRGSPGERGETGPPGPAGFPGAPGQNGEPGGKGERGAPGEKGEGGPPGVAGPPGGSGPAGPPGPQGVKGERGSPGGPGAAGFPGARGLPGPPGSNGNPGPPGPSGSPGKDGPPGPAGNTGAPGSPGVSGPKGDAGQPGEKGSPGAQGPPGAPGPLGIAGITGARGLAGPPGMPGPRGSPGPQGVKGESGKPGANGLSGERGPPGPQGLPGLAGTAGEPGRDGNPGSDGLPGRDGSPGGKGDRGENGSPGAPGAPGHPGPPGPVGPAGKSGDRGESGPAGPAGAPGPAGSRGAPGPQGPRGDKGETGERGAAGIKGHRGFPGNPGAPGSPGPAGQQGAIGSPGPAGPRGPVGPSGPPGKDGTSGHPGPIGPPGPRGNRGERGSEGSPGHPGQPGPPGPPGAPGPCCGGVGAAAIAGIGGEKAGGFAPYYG
Description: as §1

[7] = Soluble expression in Escherichia coli BL21(DE3); type: physicochemical; conditions: expression in E. coli BL21(DE3)
Description: Variants with affinity tag were expressed in Escherichia coli BL21(DE3) using a low copy plasmid system under regulation of a T7 promoter. Proteins were produced in soluble form after induction by lactose included in the medium (autoinduction medium). BL21 (DE3) competent cells were transformed with the expression plasmid, spread onto selective agar plates (kanamycin) and incubated overnight at 37° C. Precultures were inoculated from single colony in 3 ml 2×YT medium supplemented with 50 μg/ml kanamycin and cultured for 6 hours at 37° C. at 200 rpm in a conventional orbital shaker in culture tubes. […] Cultures were transferred to an orbital shaker and incubated at 30° C. and 200 rpm. Recombinant protein expression was induced by metabolizing glucose and subsequently allowing lactose to enter the cells. Cells were grown overnight for approx. 17 hours to reach a final OD600 of about 2-4. Before the harvest, the OD600 was measured, samples adjusted to 0.6/OD600 were withdrawn, pelleted and frozen at −20° C. To collect biomass cells were centrifuged at 12000×g for 15 min at 22° C. Pellets were weighed (wet weight). Cells were stored at −20° C. before processing.
Proteins with affinity tag were purified by affinity chromatography and size exclusion. After affinity chromatography purification using Strep-Tactin Superflow high capacity cartridges (IBA Lifesciences) a size exclusion chromatography (SEC) was performed using an Äkta system and a Superdex™ 200 HiLoad 16/600 column (Cytiva). Fused variants with Aflibercept were purified via MabSelect SuRe (Cytiva) affinity chromatography followed by a size exclusion chromatography (SEC) using an Äkta system and a Superdex™ 200 HiLoad 16/600 column (Cytiva). All chromatography processing steps were carried out on AKTA systems using matrices from Cytiva. Homogenous species of all purified ligands were obtained; no aggregation was detected. Following SOS-PAGE analysis positive fractions were pooled and their protein concentrations were measured. Further analysis included SOS-PAGE, SE-HPLC and RP-HPLC. Protein concentrations were determined by absorbance measurement at 280 nm using the molar absorbent coefficient. Reversed phase chromatography (RP-HPLC) was performed using a Dionex HPLC system and a PLRP-S (5 μm, 300 Å) column (Agilent). Analytic size exclusion chromatography (SE-HPLC) was performed using a Dionex HPLC system and a Superdex200 increase 5/150 GL (Cytiva). Binding of Collagen II was evaluated by SPR measurements using a Biacore 3000 system. Purified Collagen II was obtained from Chondrex.inc and VEGF-165 was obtained from Millipore. Targets were immobilized on a CM5-Sensor via NHS/EDC chemistry (immobilization level ˜1000 RU). Binding molecules were injected at different concentration and affinity was calculated by langmuir 1:1 binding model.

T5 sequence (P02452 162-1218 limits assumed): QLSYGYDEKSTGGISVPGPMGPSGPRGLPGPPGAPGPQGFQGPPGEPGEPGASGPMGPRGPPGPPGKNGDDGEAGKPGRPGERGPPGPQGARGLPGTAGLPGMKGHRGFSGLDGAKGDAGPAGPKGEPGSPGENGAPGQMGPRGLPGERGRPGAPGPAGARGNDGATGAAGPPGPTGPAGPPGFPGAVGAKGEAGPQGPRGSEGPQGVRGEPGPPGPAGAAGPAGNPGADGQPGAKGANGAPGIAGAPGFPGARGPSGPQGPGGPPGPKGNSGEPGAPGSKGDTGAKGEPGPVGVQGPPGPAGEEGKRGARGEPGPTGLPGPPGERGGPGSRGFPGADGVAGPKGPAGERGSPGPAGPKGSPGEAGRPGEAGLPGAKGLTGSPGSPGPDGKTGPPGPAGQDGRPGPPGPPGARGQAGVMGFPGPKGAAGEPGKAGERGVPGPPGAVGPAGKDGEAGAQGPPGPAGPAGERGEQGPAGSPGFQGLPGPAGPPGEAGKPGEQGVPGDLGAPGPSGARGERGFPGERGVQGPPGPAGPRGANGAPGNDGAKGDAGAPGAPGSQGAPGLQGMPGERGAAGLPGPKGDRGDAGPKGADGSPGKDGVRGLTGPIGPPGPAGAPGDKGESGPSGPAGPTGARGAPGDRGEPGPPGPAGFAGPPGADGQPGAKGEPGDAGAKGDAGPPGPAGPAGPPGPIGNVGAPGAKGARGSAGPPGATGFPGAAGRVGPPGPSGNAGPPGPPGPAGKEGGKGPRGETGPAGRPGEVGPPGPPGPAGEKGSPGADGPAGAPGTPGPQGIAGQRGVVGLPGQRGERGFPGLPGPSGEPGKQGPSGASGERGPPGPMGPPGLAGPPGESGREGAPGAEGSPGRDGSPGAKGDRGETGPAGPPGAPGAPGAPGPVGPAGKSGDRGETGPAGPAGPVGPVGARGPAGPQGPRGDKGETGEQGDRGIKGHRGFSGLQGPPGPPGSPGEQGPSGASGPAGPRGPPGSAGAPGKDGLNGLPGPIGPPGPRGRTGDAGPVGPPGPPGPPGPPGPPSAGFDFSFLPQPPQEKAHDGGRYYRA
T5 sequence (P08123 80-1119 limits assumed): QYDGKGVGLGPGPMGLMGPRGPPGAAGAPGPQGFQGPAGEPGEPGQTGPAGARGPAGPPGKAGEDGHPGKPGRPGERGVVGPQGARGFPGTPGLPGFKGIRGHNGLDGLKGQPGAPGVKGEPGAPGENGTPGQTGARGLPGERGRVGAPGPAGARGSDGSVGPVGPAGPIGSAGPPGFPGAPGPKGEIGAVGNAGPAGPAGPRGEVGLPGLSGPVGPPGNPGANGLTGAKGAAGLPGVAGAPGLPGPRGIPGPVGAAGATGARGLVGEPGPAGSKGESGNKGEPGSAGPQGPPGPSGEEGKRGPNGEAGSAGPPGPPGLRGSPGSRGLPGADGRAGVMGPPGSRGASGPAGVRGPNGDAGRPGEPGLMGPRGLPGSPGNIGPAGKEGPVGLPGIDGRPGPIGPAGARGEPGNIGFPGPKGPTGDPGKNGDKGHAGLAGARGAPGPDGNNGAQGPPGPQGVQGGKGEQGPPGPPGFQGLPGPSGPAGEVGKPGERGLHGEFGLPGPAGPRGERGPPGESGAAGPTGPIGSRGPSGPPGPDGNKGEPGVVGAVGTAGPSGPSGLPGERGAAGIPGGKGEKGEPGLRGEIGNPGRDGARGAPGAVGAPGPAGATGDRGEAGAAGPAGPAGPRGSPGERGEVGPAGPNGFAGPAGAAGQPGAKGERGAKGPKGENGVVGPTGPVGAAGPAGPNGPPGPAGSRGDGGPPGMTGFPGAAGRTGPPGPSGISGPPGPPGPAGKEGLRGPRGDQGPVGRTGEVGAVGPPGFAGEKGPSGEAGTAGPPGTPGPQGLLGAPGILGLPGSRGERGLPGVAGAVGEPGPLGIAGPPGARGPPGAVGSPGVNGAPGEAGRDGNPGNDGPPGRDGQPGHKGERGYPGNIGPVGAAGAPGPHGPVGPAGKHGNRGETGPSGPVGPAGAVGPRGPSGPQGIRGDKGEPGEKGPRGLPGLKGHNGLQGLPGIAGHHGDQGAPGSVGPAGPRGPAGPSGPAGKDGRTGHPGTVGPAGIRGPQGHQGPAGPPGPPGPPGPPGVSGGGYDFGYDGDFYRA
T4 sequence (P02751 1089-1540 limits assumed): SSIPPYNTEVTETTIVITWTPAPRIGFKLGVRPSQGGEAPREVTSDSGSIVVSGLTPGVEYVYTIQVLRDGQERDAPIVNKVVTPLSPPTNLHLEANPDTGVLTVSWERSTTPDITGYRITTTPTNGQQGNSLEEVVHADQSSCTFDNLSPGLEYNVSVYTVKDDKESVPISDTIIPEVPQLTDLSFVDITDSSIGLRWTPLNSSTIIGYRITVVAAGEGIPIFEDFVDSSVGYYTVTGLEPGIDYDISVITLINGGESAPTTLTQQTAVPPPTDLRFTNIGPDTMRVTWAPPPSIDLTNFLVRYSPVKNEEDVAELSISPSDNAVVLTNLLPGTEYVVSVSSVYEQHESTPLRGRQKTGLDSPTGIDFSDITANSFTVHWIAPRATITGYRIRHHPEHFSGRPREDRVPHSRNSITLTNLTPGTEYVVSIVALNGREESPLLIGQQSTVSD
T1 sequence (P02458 182-1241): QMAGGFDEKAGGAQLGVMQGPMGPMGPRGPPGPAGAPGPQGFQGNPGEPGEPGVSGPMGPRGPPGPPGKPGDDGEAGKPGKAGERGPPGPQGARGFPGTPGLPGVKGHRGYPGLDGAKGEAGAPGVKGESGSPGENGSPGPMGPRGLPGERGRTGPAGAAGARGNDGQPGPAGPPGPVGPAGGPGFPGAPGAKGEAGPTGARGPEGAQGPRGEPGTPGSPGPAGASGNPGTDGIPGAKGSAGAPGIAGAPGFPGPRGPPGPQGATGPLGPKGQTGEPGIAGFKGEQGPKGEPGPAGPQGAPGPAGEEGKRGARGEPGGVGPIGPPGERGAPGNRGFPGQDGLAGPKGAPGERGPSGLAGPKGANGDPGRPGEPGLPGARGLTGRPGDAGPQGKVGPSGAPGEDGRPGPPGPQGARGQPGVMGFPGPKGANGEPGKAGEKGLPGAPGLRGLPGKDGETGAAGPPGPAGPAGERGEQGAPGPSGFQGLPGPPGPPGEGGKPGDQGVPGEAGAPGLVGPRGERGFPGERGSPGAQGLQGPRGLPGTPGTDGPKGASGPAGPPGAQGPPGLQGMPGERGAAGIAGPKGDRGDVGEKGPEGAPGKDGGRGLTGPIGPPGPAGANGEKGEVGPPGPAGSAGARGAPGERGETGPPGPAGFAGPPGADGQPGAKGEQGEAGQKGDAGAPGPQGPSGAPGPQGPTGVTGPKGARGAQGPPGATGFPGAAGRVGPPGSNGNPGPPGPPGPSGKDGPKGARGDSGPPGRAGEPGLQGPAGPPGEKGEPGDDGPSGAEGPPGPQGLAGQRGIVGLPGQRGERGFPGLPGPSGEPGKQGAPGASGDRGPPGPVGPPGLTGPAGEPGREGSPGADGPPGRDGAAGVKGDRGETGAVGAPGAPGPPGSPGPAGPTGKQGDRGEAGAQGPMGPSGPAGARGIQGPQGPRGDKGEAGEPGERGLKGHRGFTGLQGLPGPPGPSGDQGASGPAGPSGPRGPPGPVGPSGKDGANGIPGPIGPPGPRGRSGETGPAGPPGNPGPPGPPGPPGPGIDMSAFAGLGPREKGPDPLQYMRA
T2 sequence (P02458 182-1241): as above

binding affinity (KD) to type II collagen by ELISA, in words [1]: 3 digit-picomolar
Affinity [SPR] vs hCol2 [2]: 0.66 nM
binding to type V collagen (ELISA) [3]: No unspecific binding
binding to domain of fibronectin (67B89) (ELISA) [4]: No unspecific binding
binding to type I collagen (ELISA) [5]: No unspecific binding
binding to type III collagen (ELISA) [6]: No unspecific binding
B1: CID 212704: tetramer of SEQ ID NO: 15 (protein)
chain: IAAKFDEAQQAADKEILHLPNLTEQQRNYFRQWLRDDPSVSPTVLGTAQQLNDSQAPKIAAKFDEAQQAADKEILHLPNLTEQQRNYFRQWLRDDPSVSPTVLGTAQQLNDSQAPKGGGSIAAKFDEAQQAADKEILHLPNLTEQQRNYFRQWLRDDPSVSPTVLGTAQQLNDSQAPKIAAKFDEAQQAADKEILHLPNLTEQQRNYFRQWLRDDPSVSPTVLGTAQQLNDSQAPKSAWSHPQFEK
modifications: Col2 binding protein (tetramer of SEQ ID NO: 15) (CID212704)
Solubility Soluble expression [7]: 100%
